From paper PMC4336329 (PLoS ONE, 2015)
Screen size: about 310,000 compounds; about 14,000 (4.5%) showed an effect of 50% or more. The effect is printed as a negative number. The list shows a part of the results.
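Further: peak tail current of the secondary pulse compared with the same well before compound.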

What follows are molecules tested against human ether-à-go-go-related gene (hERG) potassium channel (human, UniProt Q12809) (assay: primary screen, population patch clamp on CHO cells stably expressing hERG).
Chain of human ether-à-go-go-related gene (hERG) potassium channel (Q12809 whole entry, looked up): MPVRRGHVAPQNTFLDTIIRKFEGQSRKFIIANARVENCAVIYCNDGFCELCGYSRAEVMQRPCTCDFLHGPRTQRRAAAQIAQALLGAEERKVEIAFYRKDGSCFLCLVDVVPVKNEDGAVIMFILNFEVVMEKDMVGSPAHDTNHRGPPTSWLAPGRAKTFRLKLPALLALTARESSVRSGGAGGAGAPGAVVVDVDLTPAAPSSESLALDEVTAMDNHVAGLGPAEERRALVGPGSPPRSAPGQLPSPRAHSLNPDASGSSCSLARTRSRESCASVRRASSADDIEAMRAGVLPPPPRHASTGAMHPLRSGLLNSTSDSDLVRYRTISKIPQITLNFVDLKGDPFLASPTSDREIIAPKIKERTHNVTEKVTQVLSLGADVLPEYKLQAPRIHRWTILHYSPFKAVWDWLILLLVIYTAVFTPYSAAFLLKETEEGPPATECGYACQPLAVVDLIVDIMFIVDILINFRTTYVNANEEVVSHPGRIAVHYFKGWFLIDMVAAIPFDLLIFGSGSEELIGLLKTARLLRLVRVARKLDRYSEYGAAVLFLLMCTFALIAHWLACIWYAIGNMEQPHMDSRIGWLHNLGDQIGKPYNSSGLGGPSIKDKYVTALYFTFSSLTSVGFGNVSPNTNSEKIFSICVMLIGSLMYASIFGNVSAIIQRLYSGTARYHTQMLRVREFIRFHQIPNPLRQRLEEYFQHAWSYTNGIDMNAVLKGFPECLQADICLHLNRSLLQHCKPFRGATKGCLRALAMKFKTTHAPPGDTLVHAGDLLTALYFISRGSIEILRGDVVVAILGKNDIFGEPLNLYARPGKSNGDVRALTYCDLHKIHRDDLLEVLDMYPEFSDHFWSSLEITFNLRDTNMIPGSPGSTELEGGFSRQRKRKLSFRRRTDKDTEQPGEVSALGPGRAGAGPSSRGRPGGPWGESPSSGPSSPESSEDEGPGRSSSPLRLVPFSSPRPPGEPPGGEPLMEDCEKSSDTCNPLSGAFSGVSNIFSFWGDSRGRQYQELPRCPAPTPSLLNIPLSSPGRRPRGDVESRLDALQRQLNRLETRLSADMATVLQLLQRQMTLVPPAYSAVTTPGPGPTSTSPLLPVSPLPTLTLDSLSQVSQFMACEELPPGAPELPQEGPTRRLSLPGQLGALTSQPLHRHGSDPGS
Cn1c(=O)c2c(nc(SCCN3CCCCC3)n2Cc2ccccc2)n(C)c1=O was tested, and the “hERG current change (%, negative = inhibition) at 10uM” value was -76%.
For CC(C)(C)C1CCC(=NOC(=O)c2ccc(F)cc2)CC1 (centres unmarked), the “hERG current change (%, negative = inhibition) at 10uM” value was 15.7%.
With Cc1ccc(CNc2nc(N)c([N+](=O)[O-])c(Nc3cccc(F)c3)n2)cc1 the “hERG current change (%, negative = inhibition) at 10uM” value was -6.33%.
In the case of Cc1cc(=O)[nH]c(SCC(=O)c2ccc(O)c(O)c2)n1, the “hERG current change (%, negative = inhibition) at 10uM” value is reported as 22.6%.
With C/C(=N\NC(=O)CCC(=O)Nc1ccc(C)c(C)c1)C1CC1 the “hERG current change (%, negative = inhibition) at 10uM” value was 10.7%.
With O=C(CSc1nc2ccccc2[nH]1)N/N=C/c1ccncc1 the “hERG current change (%, negative = inhibition) at 10uM” value was -2.17%.
CC1(C)Cn2c(nnc2-c2ccccc2)S1 was tested, and the “hERG current change (%, negative = inhibition) at 10uM” value was 14.1%.
With CC1(C)CC(CC(=O)Nc2ccc([N+](=O)[O-])cc2)C(=O)O1 (centres unmarked) the “hERG current change (%, negative = inhibition) at 10uM” value was -22.5%.
O=C(CN(C(=O)CSc1nnc(COc2ccccc2)o1)c1ccc(F)cc1)NC1CCCCC1 was tested, and the “hERG current change (%, negative = inhibition) at 10uM” value was -15.8%.
With Cc1ccc(N2CCN(S(=O)(=O)c3cccs3)CC2C)cc1 (centres unmarked) the “hERG current change (%, negative = inhibition) at 10uM” value was -8.24%.
For O=C(CSc1nnc(NC(=O)c2c(F)cccc2F)s1)Nc1ccc(F)cc1, the “hERG current change (%, negative = inhibition) at 10uM” value was -11.7%.
In the case of COC(C(=O)Nc1ccc(F)c(F)c1)c1ccccc1 (centres unmarked), the “hERG current change (%, negative = inhibition) at 10uM” value is reported as -13.7%.
For CCOC(=O)C1(Cc2ccccc2)CCN(Cc2ccc(C)s2)CC1, the “hERG current change (%, negative = inhibition) at 10uM” value was -46%.
For O=C(c1ccc(CS(=O)(=O)c2ccccc2)o1)N1CCN(c2ncccn2)CC1, the “hERG current change (%, negative = inhibition) at 10uM” value was -14.5%.
With CC(C)=CC(=O)OCC(=O)NC1CCCc2ccccc21 (centres unmarked) the “hERG current change (%, negative = inhibition) at 10uM” value was 1.17%.
In the case of N#Cc1c(NC(=S)NC(=O)c2ccccc2)sc2c1CCN(CCc1ccccc1)C2, the “hERG current change (%, negative = inhibition) at 10uM” value is reported as -27.1%.
For CON(c1nc(Cl)nc(N(C)C)n1)S(=O)(=O)c1ccccc1Cl, the “hERG current change (%, negative = inhibition) at 10uM” value was 3.34%.
COc1ccccc1-c1noc(-c2ccccc2C(=O)NCC2CCCO2)n1 (centres unmarked) was tested, and the “hERG current change (%, negative = inhibition) at 10uM” value was 9.42%.
CCCn1cc(S(=O)(=O)c2ccccc2)c(=O)c2cc(CC)ccc21 was tested, and the “hERG current change (%, negative = inhibition) at 10uM” value was 21.3%.
O=C(N/N=C/c1ccccc1O)C1SCCCS1 was tested, and the “hERG current change (%, negative = inhibition) at 10uM” value was 3.55%.
For CN(CC(=O)Nc1ccccc1Cl)C(=O)c1cccc(S(=O)(=O)N2CCN(c3ccc(F)cc3)CC2)c1, the “hERG current change (%, negative = inhibition) at 10uM” value was -13.4%.
In the case of COc1cc(S(=O)(=O)N2CCOCC2)ccc1N, the “hERG current change (%, negative = inhibition) at 10uM” value is reported as 18.8%.
For CCc1noc(C)c1C(=O)Nc1nc2ccc(S(C)(=O)=O)cc2s1, the “hERG current change (%, negative = inhibition) at 10uM” value was -5.83%.
For Cc1c(Cl)cccc1-n1c(SCC(=O)N2CCC(C(=O)O)CC2)nnc1-c1ccncc1, the “hERG current change (%, negative = inhibition) at 10uM” value was 41%.
For c1ccc2cc(CSCc3nc4ccccc4[nH]3)ccc2c1, the “hERG current change (%, negative = inhibition) at 10uM” value was -0.252%.
With Cc1ccc(C(=O)NC(=S)Nc2c(C)ccc3nsnc23)cc1 the “hERG current change (%, negative = inhibition) at 10uM” value was 0.39%.
In the case of Cc1nn(-c2ccccc2)c(Cl)c1/C=N/NS(=O)(=O)c1ccc(Br)cc1, the “hERG current change (%, negative = inhibition) at 10uM” value is reported as 7.93%.
In the case of COc1ccc(CC(=O)NC2CCN(CC(=O)Nc3ccc4c(c3)OCCO4)CC2)cc1OC, the “hERG current change (%, negative = inhibition) at 10uM” value is reported as -1.63%.
In the case of CC(C)OC(=O)CC1C(=O)NCCN1C(=S)NC(=O)CCc1ccccc1 (centres unmarked), the “hERG current change (%, negative = inhibition) at 10uM” value is reported as -6.97%.
With FC(F)(F)c1ccc(C2[C@H]3CN(Cc4ccc(-c5ccccc5)cc4)[C@H](c4ccccc4)C34CC2(c2ccccc2)C4)cc1 (some centres unmarked) the “hERG current change (%, negative = inhibition) at 10uM” value was 17.3%.
For CN1CCN(CC(=O)N2c3ccccc3C(C)(c3ccc(Cl)cc3)CC2(C)C)CC1 (centres unmarked), the “hERG current change (%, negative = inhibition) at 10uM” value was -21.1%.
For COc1ccc(N2CCN(C(=O)CSc3nc4nc(C)cc(C)n4n3)CC2)cc1, the “hERG current change (%, negative = inhibition) at 10uM” value was -27.8%.
In the case of O=C(CCSc1nc(-c2ccco2)cc(C(F)(F)F)n1)N1CCN(c2ccccc2)CC1, the “hERG current change (%, negative = inhibition) at 10uM” value is reported as -0.756%.
For O=C(C1CCC(=O)N1C1CCCC1)N1CCC2(CC1)OCCO2 (centres unmarked), the “hERG current change (%, negative = inhibition) at 10uM” value was 11.3%.
C=CCn1c(SCC(=O)c2c(N)n(C3CC3)c(=O)[nH]c2=O)nnc1-c1ccoc1C was tested, and the “hERG current change (%, negative = inhibition) at 10uM” value was -0.51%.
For Cc1nnc2n1N=CC=C(c1ccccc1)S2, the “hERG current change (%, negative = inhibition) at 10uM” value was -26.8%.
COc1ccc(-c2noc(CCC(=O)NCCc3cccc(C)c3)n2)cc1 was tested, and the “hERG current change (%, negative = inhibition) at 10uM” value was -0.562%.
For O=C(c1ccccc1)N1CC[NH+](CC(O)COC2CCCCC2)CC1.[Cl-] (centres unmarked), the “hERG current change (%, negative = inhibition) at 10uM” value was -42.5%.
For C=CCn1c(SCC(=O)/C(C#N)=C(\C)N)nc2sc(C)c(C)c2c1=O, the “hERG current change (%, negative = inhibition) at 10uM” value was -7.73%.
With Clc1ccc(/C=N/Nc2nnc(-c3ncc[nH]3)c3ccccc23)cc1 the “hERG current change (%, negative = inhibition) at 10uM” value was -9.21%.
With O=C(CN1CCN(C(=O)CNC(=O)c2ccc3c(c2)OCO3)CC1)Nc1ccc(F)cc1 the “hERG current change (%, negative = inhibition) at 10uM” value was -39.5%.
With COC(=O)c1ccccc1-n1c(C)nc2ccccc2c1=O the “hERG current change (%, negative = inhibition) at 10uM” value was -3.37%.
CCCCN(CC)C(=O)Cc1cn(C)c2ccccc12 was tested, and the “hERG current change (%, negative = inhibition) at 10uM” value was -7.34%.
In the case of CCCCn1c(N)c(N(CC(C)C)C(=O)CC2CCCC2)c(=O)[nH]c1=O, the “hERG current change (%, negative = inhibition) at 10uM” value is reported as 6.4%.
In the case of CCOc1ccc(/C=C/C(=O)Nc2cccc(C(C)=O)c2)cc1, the “hERG current change (%, negative = inhibition) at 10uM” value is reported as 8.25%.
For CC(C)CC(=O)Nc1ccnc(-c2ccncc2)n1, the “hERG current change (%, negative = inhibition) at 10uM” value was -26.6%.
With CCN(C(=O)COC(=O)Cc1c[nH]c2ccccc12)c1c(N)n(Cc2ccccc2)c(=O)[nH]c1=O the “hERG current change (%, negative = inhibition) at 10uM” value was 16.3%.
For O=C(NC1CC1)C1CCCN(C(=O)NC2CCCCC2)C1 (centres unmarked), the “hERG current change (%, negative = inhibition) at 10uM” value was -0.046%.
For Cc1ccc(CCC2C3=C(CCCC3=O)OC3=C2C(=O)CCC3)cc1, the “hERG current change (%, negative = inhibition) at 10uM” value was -2.32%.
CCN(CC)S(=O)(=O)c1cc(C(=O)N=c2sccn2C)ccc1OC was tested, and the “hERG current change (%, negative = inhibition) at 10uM” value was 8.14%.
For COc1ccc(C(=O)OC(C)C(=O)NC2CCCCC2C)cc1S(=O)(=O)N1CCOCC1 (centres unmarked), the “hERG current change (%, negative = inhibition) at 10uM” value was -7.8%.
For COc1cc(O)c(CCO)c2c1C(=O)C[C@@H](C)O2, the “hERG current change (%, negative = inhibition) at 10uM” value was -12.4%.
Fc1ccc(CNC(=S)NC2CCCCCC2)cc1 was tested, and the “hERG current change (%, negative = inhibition) at 10uM” value was 14%.
In the case of O=C1NCCN(Cc2ccc(Cl)c(F)c2)C1CC(=O)N1CCc2ccccc2C1 (centres unmarked), the “hERG current change (%, negative = inhibition) at 10uM” value is reported as -11.6%.
With CCn1nnc(NC(=O)c2ccc(-c3ccccc3[N+](=O)[O-])o2)n1 the “hERG current change (%, negative = inhibition) at 10uM” value was 1.59%.
For Cc1csc2ncc(C(=O)NCc3ccco3)c(=O)n12, the “hERG current change (%, negative = inhibition) at 10uM” value was -9.02%.
